Measured values from the RNAGym collection of RNA variant scans (doi:10.7554/elife.90254).
The source gives no read counts; variants with many changes may rest on few reads.

B1: LINE1-mini (parent)
chain: GGCAGAGCUCAACACAGCGUGGCAAAGUGGCUGUGGCUAGACUGCC

Variants of: B1
Assay: self-cleavage, relative activity (ratio to wild type); higher = more cleavage; in vitro, sequencing; the parent is a self-cleaving ribozyme
C23U G30C U32C C42U U43G gave a self-cleavage of 0.02. A24G G40C A41U U43C gave a self-cleavage of 0.01. G27A G40U G44C C46A gave a self-cleavage of 0.23. In the case of G27A C31U G40A, the self-cleavage is reported as 0.02. Variant C23A G33U C37A has a self-cleavage of 0.1. A26C U34C G44C gave a self-cleavage of 0.06. C23U G27U G35A showed a self-cleavage of 0.07. For C23U C31A U34A G35U, the self-cleavage was 0.02. Variant C23A U34G A41U has a self-cleavage of 0.27. Work on A25U G27C C42U U43A yielded a self-cleavage of 0.07. With A24G C42U C46A the self-cleavage was 0.11. For A26U G29C C31A U43C, the self-cleavage was 0.03. Variant G27A U28G C31A C46A has a self-cleavage of 0.11. Variant A25C G36A C46U has a self-cleavage of 0.04. Work on A26C G29A C45A yielded a self-cleavage of 1.21. Variant A26C U28A C31G has a self-cleavage of 0.06. C23U G30C G33C C45G showed a self-cleavage of 0.02. A24C U43A C46G showed a self-cleavage of 0.01. With A24C U43A C46U the self-cleavage was 0.07. With C23A U32G U43A the self-cleavage was 0.05. Work on A25U U32G G36U yielded a self-cleavage of 0.02. A25U C37U G44U showed a self-cleavage of 0.06. A24C U38G C45U showed a self-cleavage of 0.01. In the case of A25C A26G G29C U32G A41C G44A, the self-cleavage is reported as 0.04. With C23A U28G G29C G33A the self-cleavage was 0.87. Variant C23G C31U G40U C42G has a self-cleavage of 0.02. Variant C23U A26U A41G has a self-cleavage of 0.28. Work on C23A U34G G35A C37A G44A yielded a self-cleavage of 0.02. A26C C37A U43G gave a self-cleavage of 0.04. A26G U28G C31A G36C showed a self-cleavage of 0.01. For A26U G36A U43G, the self-cleavage was 0. A24C A25G G29U G35U showed a self-cleavage of 0.22. Variant C23G G27A C42U has a self-cleavage of 1.42. With A24U A26C U34A the self-cleavage was 0.13. With C23G G29A U43A the self-cleavage was 0.09. In the case of A26U G27A U28C C37A, the self-cleavage is reported as 0.15. With A26G A41U C42A the self-cleavage was 0.02. A25C U32G U43C gave a self-cleavage of 0.19. Work on A24G G29U C42A G44C yielded a self-cleavage of 0.09. Variant A24C G33A G35A has a self-cleavage of 0.03. A25G G33U C37G gave a self-cleavage of 0.02. Work on A24C G36A A39G yielded a self-cleavage of 0.1. C23A G29U G36A showed a self-cleavage of 0.04. A24U A25U A39C showed a self-cleavage of 0.31. Work on A26C G30C C31A G40C yielded a self-cleavage of 0.01. For A25G U32C C46G, the self-cleavage was 0.01. In the case of C23U C37U A39G, the self-cleavage is reported as 0.03. Work on C23U C42G C46U yielded a self-cleavage of 0.02. In the case of A25C C31G C37A, the self-cleavage is reported as 0.04. C23G U28C A41U gave a self-cleavage of 0.1. C23A G30C G36U showed a self-cleavage of 0.33. A25G G27C U28G A39U gave a self-cleavage of 0.1. A24U A39U C46G gave a self-cleavage of 1.96. With A24G G30A C45U the self-cleavage was 0.14. In the case of A25U G36U A39U, the self-cleavage is reported as 0.12. Variant A25U U28C G40U A41C C45A has a self-cleavage of 0.28. In the case of A25G U28G G35U G36A C45U, the self-cleavage is reported as 0.02. With A24C U38A G44U the self-cleavage was 0.12. For A25G G40A C45G, the self-cleavage was 0.06. Variant A25U G33C G35C A39U C42G has a self-cleavage of 0.04. With A24G G33C G35U the self-cleavage was 0.04. In the case of A25C G29U G35A C42G, the self-cleavage is reported as 0.02. With A26U G29U G33U G40A the self-cleavage was 0.14. For A24C C37U U38G, the self-cleavage was 0.03. C23U G30A U38A G40C showed a self-cleavage of 0.03. C23U G29U G40U showed a self-cleavage of 0.05. With A24C G27U G30C C31A the self-cleavage was 0.02. With C23G G36U A39U C42A the self-cleavage was 0. A24G C31A G44U gave a self-cleavage of 0.04. In the case of C23U G36U G40C, the self-cleavage is reported as 0.06. A25G A26G G44A showed a self-cleavage of 0.2. With C23U G35A C46U the self-cleavage was 1.19. For A26G G27C G30A U32C, the self-cleavage was 0.17. C23G G30A U43C showed a self-cleavage of 0.05. For A26C G36A U38A, the self-cleavage was 0.08. C23A U28C G29A U38A G40U showed a self-cleavage of 0.14. C23U A26U C45A gave a self-cleavage of 0.58. In the case of C23U A26U G33A A41C G44C C46A, the self-cleavage is reported as 0.03. With C23U C31G G40C the self-cleavage was 0.02. A25G U34G A41G G44A gave a self-cleavage of 0.02. With A24G C42U C45A the self-cleavage was 0.23. Work on A25G G27A A39U yielded a self-cleavage of 0.52. For A25C G29C G36U, the self-cleavage was 0.02. Work on A26G U28C C31A U34G C42A yielded a self-cleavage of 0. With A25G G30C U32G G40U the self-cleavage was 0. A25C G33C U34C G35U showed a self-cleavage of 0.23. Work on C23U G33C C37U A39C yielded a self-cleavage of 2.01. Variant A24C G27C C37U has a self-cleavage of 0. With A26G A39U G40C the self-cleavage was 0.19. For A24G A26U G29C G40U, the self-cleavage was 0.03. C23U A24G G40A showed a self-cleavage of 0.02. With C23U U28G G36U U38A the self-cleavage was 0.01. A25U G36U C37G C45U gave a self-cleavage of 0.04. With C23U A25C U32A C37U the self-cleavage was 0.02. With A25U G36U C37A the self-cleavage was 0.04. With A26C G35U A41C C42A the self-cleavage was 0.01. For A26C G35A G36C, the self-cleavage was 0.04. Variant A26C G35A G36U has a self-cleavage of 0.08. Work on A26C G33U A39U yielded a self-cleavage of 0.04. Work on C23U G30C C37G C46A yielded a self-cleavage of 0.01. For A24C C37A C45G, the self-cleavage was 0.02. In the case of C23A U34C G36A A39C U43A, the self-cleavage is reported as 0.01. A24G G27A U38C gave a self-cleavage of 0.93. For A26U G27A C42A G44C, the self-cleavage was 0.21. C23U G29U U34G showed a self-cleavage of 0.28. A25C G27A G30A gave a self-cleavage of 0.69. Variant A24C A25C U43A C46G has a self-cleavage of 0.02. Work on A25U U28G G29U yielded a self-cleavage of 0.42. Variant A26U U34C C46A has a self-cleavage of 0.07. A25G G33C G36C gave a self-cleavage of 0.02. Work on A26U G35A C37U yielded a self-cleavage of 0. Variant A26G U28C A41U has a self-cleavage of 0.21. A24U G27U G33A gave a self-cleavage of 0.01. In the case of A25C G29U G36C, the self-cleavage is reported as 0.05. A26U G30U U34C gave a self-cleavage of 0.08. Work on A26U G27C U32A G35C yielded a self-cleavage of 0.05. G27A G44A C46U gave a self-cleavage of 0.05. Work on C23U G30U A41C yielded a self-cleavage of 0.04. Work on C23U U34A G36U yielded a self-cleavage of 0.04. For A24U G30U G44C C45U, the self-cleavage was 0.05. In the case of A24G C37U G44C, the self-cleavage is reported as 0.13. For C23G G29U U32C, the self-cleavage was 0.42. In the case of A26C U28A A39C C46U, the self-cleavage is reported as 0.42. Work on C23U G27A C31U yielded a self-cleavage of 0.34. A25U A26C U28C G44C showed a self-cleavage of 0.22. A24G G36C G40C C42G C45G showed a self-cleavage of 0.03. For C23U G40U C45A, the self-cleavage was 0.28. With A25G A26U G36A the self-cleavage was 0.15. G27A G35U C37A A39G C46A gave a self-cleavage of 0.06. For C23G G29A G35A A41U, the self-cleavage was 0.12. Variant A24U U34A C37U U38C C46A has a self-cleavage of 0.03. A26U G29U G35C C37A U38G showed a self-cleavage of 0.01. With A24U C31U C37U A39U C45U the self-cleavage was 0.02. Variant A26U U32C C42A has a self-cleavage of 0.21. In the case of A24U A26G G33C C37A G40U, the self-cleavage is reported as 0.03. A26U C31A C42G gave a self-cleavage of 0.05. C23G G35U U43A showed a self-cleavage of 0.02. Work on C23G A24G A41C yielded a self-cleavage of 0.05. With A26G G27A U34C the self-cleavage was 0.05. A25C G30A G35U G44U showed a self-cleavage of 0.01. C23A G35A U38G gave a self-cleavage of 0.02. A24U G29U C46U gave a self-cleavage of 0.71. With A26G G27A C45A the self-cleavage was 0.86. Variant A26G G30A C31U has a self-cleavage of 0.21. A24G G29C G44C gave a self-cleavage of 0.11. In the case of A25C C42U G44C, the self-cleavage is reported as 0.05. Variant C23A G30C G33A C42A has a self-cleavage of 0.09. In the case of A24G A39C C46A, the self-cleavage is reported as 0.07. C23G A24U A41C C42G C46A gave a self-cleavage of 0.03. Work on A24G C31A U32A G33C A41C yielded a self-cleavage of 0.15. A24U U28A G29A U34C showed a self-cleavage of 0.02. In the case of A25C A26G C42G G44U, the self-cleavage is reported as 0.06. Variant A25G U32G C37U has a self-cleavage of 0.15. For A25G U32G C37A, the self-cleavage was 0.1. Variant A24U U28A U43G has a self-cleavage of 0. A24G G40U C46A gave a self-cleavage of 0.04. A24U U34G A41U gave a self-cleavage of 0.1. Work on C23U G40U G44U yielded a self-cleavage of 0.06. A24C G30C C37U showed a self-cleavage of 0.08. For A25U G36C G40A, the self-cleavage was 0.15. Variant A25C G33C G36U G40A has a self-cleavage of 0.04. Work on A24U G29U G30U U34G yielded a self-cleavage of 0.09. Variant A24G G35U U38G G40U has a self-cleavage of 0.04. With A24U A25C U32G C37A the self-cleavage was 0.03. In the case of A26G G33A G35U G40U, the self-cleavage is reported as 0.03. In the case of A26C G36U G44A, the self-cleavage is reported as 0.15. In the case of C23U G30U C31A U32A G35A, the self-cleavage is reported as 0.02.
